Reference: PubChem BioAssay AID485281 (National Center for Advancing Translational Sciences (NCATS), 2010)
About 260 (0.074%) of roughly 350,000 compounds were called active. Inconclusive results, whose numbers are uncertain, are shown with a selection of clear calls. The call rests on the fitted dose curve; in most records, active means well fitted inhibition curve with a large enough effect; inconclusive means small, poorly fitted or top-dose-only effect; inactive means no such curve, though single readings can be large or run the other way. Where the call is inconclusive, the potency comes from a doubtful curve fit.

The compounds below were run against Ferritin light chain (Equus caballus) (UniProt P02791) (assay: qHTS Assay for Identification of Novel General Anesthetics). Conditions: apoferritin/1-aminoanthracene competitive binding, fluorescence; activity change, negative = displacement: at 77.5 µM (top of the series).
UniProt P02791, sequence (P02791 whole entry, looked up): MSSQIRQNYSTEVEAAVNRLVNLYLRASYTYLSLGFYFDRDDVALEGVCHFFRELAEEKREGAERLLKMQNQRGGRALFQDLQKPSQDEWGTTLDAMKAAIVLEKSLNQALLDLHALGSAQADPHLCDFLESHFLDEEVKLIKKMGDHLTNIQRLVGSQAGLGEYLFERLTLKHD
Summary of the method: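 Horse-spleen apoferritin (10 uM) was mixed with 50% saturated 1-aminoanthracene in PBS, exposed to compounds for 10 min at room temperature, and read for fluorescence (ex 380 nm, em 535 nm). Competitive displacement was fitted with a four-parameter Hill equation.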
Further: nearly all actives have a fitted effect of over 20% in size.
On the % scale 0 is the no-effect control and ±100 the full control effect; potency means the concentration at half of the fitted maximal effect; tags describe the fitted curve by direction and shape.

Compound	Potency	activity change, negative = displacement
Cc1cc(C)cc(C(=O)NC(CC(N)=O)c2ccc(NCC3CC3)c([N+](=O)[O-])c2)c1 (centres undefined)	inconclusive: 35.5 µM [inhibitor, single point]	
Cc1cc(C)n(-c2ccc3cccc(NS(C)(=O)=O)c3n2)n1		inactive: -9.3%
Cc1sc(NC(=O)C2CCCCC2)c(C#N)c1-c1ccccc1	inconclusive: 15.8 µM [inhibitor, partial curve]	
O=C(CCc1ccccc1)NC(=S)Nc1ccccc1Br	inconclusive: 17.8 µM [inhibitor, partial curve]	
COc1ccc(-n2cnc3scc(-c4ccccc4)c3c2=O)cc1	inconclusive: 20 µM [inhibitor, partial curve]	
COc1ccc(NC(=O)CSc2n[nH]c(N)n2)c([N+](=O)[O-])c1		inactive: -7.35%
CCn1c(C(=O)Nc2c(C)cccc2C)cc2sc(Cl)cc21		inactive: -6.39%
COc1ccccc1CNC(=O)C1CC(c2cccc([N+](=O)[O-])c2)=NO1 (centres undefined)	inconclusive: 39.8 µM [inhibitor, partial curve]	
O=C(COC(=O)/C=C/c1cccs1)Nc1nc(-c2ccccc2)cs1	inconclusive: 44.7 µM [inhibitor, single point]	
O=C(Cn1nc(-c2ccccc2)c2c(c1=O)CCCC2)Nc1ccc(F)c(Cl)c1	inconclusive: 3.55 µM [inhibitor, single point]	
CC(=O)Cc1cc(O)c2ccccc2c1OC(=O)c1ccccc1		inactive: -17.3%
Cc1ccccc1NS(=O)(=O)c1ccc2[nH]cc(C(=O)NC3CCCCC3)c(=O)c2c1	inconclusive: 31.6 µM [inhibitor, partial curve, poor fit]	
CC1CCCCC1Nc1nc2ccc(Cl)cc2n2cnnc12 (centres undefined)	inconclusive: 17.8 µM [inhibitor, partial curve]	
Oc1ccc(N=Nc2ccc3c(c2)OCO3)c2ccccc12		inactive: 3.9%
Cc1ccc(NC(=O)c2oc3ccc(S(=O)(=O)N4CCCCCC4)cc3c2C)c(C)c1		inactive: 20%
CCN1CCC(NC(=O)Nc2cccc(C(F)(F)F)c2)CC1		inactive: -11.2%
CC(C)=CCN1CCN(Cc2cnc(N3CCOCC3)s2)CC1CCO (centres undefined)	inconclusive: 17.8 µM [inhibitor, partial curve]	
Cc1ccc(SCCSc2nc(N)cc(=O)[nH]2)cc1	inconclusive: 17.8 µM [inhibitor, partial curve]	
N#Cc1cc2c(nc1SC1CCCCC1O)CCCC2 (centres undefined)	inconclusive: 44.7 µM [inhibitor, partial curve]	
Cc1cc(=O)[nH]c(SCC(=O)N2CCCCCC2)n1	inconclusive: 31.6 µM [inhibitor, partial curve]	
Nc1ccc(C(=O)NC2CCSc3ccccc32)cc1[N+](=O)[O-] (centres undefined)	inconclusive: 28.2 µM [inhibitor, partial curve]	
C=CCn1c(=O)/c(=C/c2ccc(F)cc2)s/c1=C(\C#N)c1nnc2n1CCCCC2	inconclusive: 15.8 µM [inhibitor, partial curve]	

Compound	Potency	activity change, negative = displacement
COc1nnc(-c2ccc(N3CCOCC3)c(NC(=O)C3CCCCC3)c2)c2ccccc12	inconclusive: 2.82 µM [inhibitor, partial curve, poor fit]	
O=[N+]([O-])c1ccc(N2CCN(c3ccc([N+](=O)[O-])cc3CO)CC2)c(CO)c1		inactive: 7.55%
COc1ccc(Cn2nnnc2C(c2ccc(N(C)C)cc2)N2CCC(C(N)=O)CC2)cc1 (centres undefined)		inactive: -4.01%
NCCOc1ccc(C23CC4CC(CC(C4)C2)C3)cc1	active: 11.2 µM	
CCOc1ccc(CN2CCN(Cc3cnc(-c4ccccc4)s3)CC2CCO)cc1 (centres undefined)	inconclusive: 39.8 µM [inhibitor, single point]	
CCN(CC)S(=O)(=O)c1cccc(C(=O)OCC(=O)Nc2ccc3c(c2)c2ccccc2n3CC)c1		inactive: 4.35%
Cc1ccc(Sc2cnn(-c3ccccc3)c(=O)c2Cl)cc1	inconclusive: 31.6 µM [inhibitor, partial curve]	
O=C(CSc1nnc(-c2ccco2)o1)NC1CCCCCC1	inconclusive: 17.8 µM [inhibitor, partial curve, poor fit]	
Cc1ccc(NCC(=O)N/N=C/c2cc3ccccc3nc2Cl)cc1	inconclusive: 35.5 µM [inhibitor, partial curve]	
CC1CCCN(S(=O)(=O)c2ccc(C(=O)Nc3nnc(-c4ccccn4)o3)cc2)C1 (centres undefined)		inactive: -1.41%
CCn1c(COc2cccc(C)c2)nnc1SCC(=O)Nc1cccc(C(=O)OC)c1	inconclusive: 10 µM [inhibitor, partial curve]	
O=C1C2CCCCN2C(=O)N1CCCCN1CCN(c2ccc([N+](=O)[O-])cc2)CC1 (centres undefined)	inconclusive: 35.5 µM [inhibitor, partial curve, poor fit]	
Cc1ccc(COC(=O)c2cc([N+](=O)[O-])ccc2N2CCOCC2)cc1	inconclusive: 28.2 µM [inhibitor, partial curve]	
O=C(NNc1nc2cc3c(cc2s1)OCCO3)c1ccc(F)cc1		inactive: -6.16%
O=C(c1ccc(Cl)cc1)N1CCC(c2nc3ccccc3o2)CC1		inactive: -5.62%
CNC(=O)c1ccc(-c2ccccc2)s1	inconclusive: 39.8 µM [inhibitor, single point]	
CCOc1ccc(NC(=O)c2c(NCc3ccc(C)o3)sc3c2CCCCC3)cc1	inconclusive: 35.5 µM [inhibitor, single point]	
Nc1n[nH]c(N)c1N=Nc1ccc(Cl)cc1	inconclusive: 50.1 µM [inhibitor, single point]	
Cc1ccc(-c2ccc(=O)n(CC(=O)NCCc3ccc(Cl)cc3)n2)cc1	inconclusive: 35.5 µM [inhibitor, partial curve]	
O=C(/C=C/c1ccccc1)Oc1coc(CSc2ncccn2)cc1=O	inconclusive: 25.1 µM [inhibitor, partial curve]	
O=S(=O)(NCCC1=CCCCC1)c1cccc(S(=O)(=O)N2CCOCC2)c1	inconclusive: 10 µM [inhibitor, partial curve]	
Cc1cc(NC(=O)COC(=O)c2cc(S(=O)(=O)N3CCOCC3)ccc2N2CCCCC2)no1	inconclusive: 28.2 µM [inhibitor, partial curve]	
